Screen size: about 270,000 compounds; about 5,800 (2.1%) were called active. Inconclusive means that the source gave no clear call. Such entries were picked first, then a sample of the others. Calls follow the shape of the dose curve; as a rule, active = well fitted inhibition curve with a large enough effect; inconclusive = small, poorly fitted or top-dose-only effect; inactive = flat fitted curve, though single readings scatter. A potency beside an inconclusive call is a rough fit, not a confirmed value.
What follows are compounds tested against Microtubule-associated protein tau (Homo sapiens) (UniProt P10636) (assay: qHTS for Inhibitors of Tau Fibril Formation, Thioflavin T Binding). Details: recombinant tau K18 P301L (four-repeat tau fragment), heparin-induced fibrillization, ThT fluorescence; series mostly up to 57.4 µM; activity, negative = inhibition: at the top concentration.
Method in brief: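 Recombinant human tau K18 fragment […] carrying P301L, 15 uM unlabeled plus 0.24 uM Alexa 594-labeled, was fibrillized with 20 uM heparin in 100 mM sodium acetate pH 7 for 6 hr at 37 C; 30 uM ThT fluorescence read after 1 hr.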
% is scaled to controls: 0 for no effect and ±100 for the full control effect; potency is read from the fitted curve at half-maximal effect; tags tell the direction and shape of the fitted curve.
Also: nearly all actives have a fitted effect of over 55% in size.

Chain of UniProt P10636 (P10636 whole entry, looked up, the tested form may be a part): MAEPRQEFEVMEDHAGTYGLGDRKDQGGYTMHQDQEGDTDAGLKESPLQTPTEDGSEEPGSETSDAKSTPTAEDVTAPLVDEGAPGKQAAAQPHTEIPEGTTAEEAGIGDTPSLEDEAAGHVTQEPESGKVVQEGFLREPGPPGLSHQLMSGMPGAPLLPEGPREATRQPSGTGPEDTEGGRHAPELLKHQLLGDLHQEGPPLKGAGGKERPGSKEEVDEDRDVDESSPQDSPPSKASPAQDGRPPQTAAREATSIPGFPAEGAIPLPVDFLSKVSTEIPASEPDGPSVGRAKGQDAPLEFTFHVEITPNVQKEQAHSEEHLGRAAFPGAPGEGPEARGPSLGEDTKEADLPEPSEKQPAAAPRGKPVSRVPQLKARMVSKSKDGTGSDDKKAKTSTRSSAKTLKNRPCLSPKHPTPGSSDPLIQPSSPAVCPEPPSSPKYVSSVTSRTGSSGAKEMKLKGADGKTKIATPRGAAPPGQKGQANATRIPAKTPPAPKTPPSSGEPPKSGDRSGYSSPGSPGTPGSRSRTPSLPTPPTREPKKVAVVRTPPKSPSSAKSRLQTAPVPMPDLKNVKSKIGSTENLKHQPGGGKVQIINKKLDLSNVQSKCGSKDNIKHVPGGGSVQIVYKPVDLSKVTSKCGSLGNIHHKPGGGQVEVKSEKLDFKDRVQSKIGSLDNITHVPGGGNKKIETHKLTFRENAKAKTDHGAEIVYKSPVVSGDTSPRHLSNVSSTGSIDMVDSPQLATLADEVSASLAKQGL

Row | SMILES | Potency | activity, negative = inhibition
1 | Cc1ccc(NS(=O)(=O)c2cc3c4c(cccc4c2)C(=O)NC3=O)cc1C | inconclusive: 14.1 µM [inhibitor, partial curve, poor fit] | 
2 | O=C(c1ccc([N+](=O)[O-])cc1)n1nc(-c2ccccc2)nc1NCc1ccc(F)cc1 | inconclusive: 12.6 µM [inhibitor, partial curve] | 
3 | Cc1[nH]n(C2=NCCS2)c(=O)c1N=Nc1ccccc1 | inconclusive: 8.91 µM [inhibitor, full curve] | 
4 | Cc1ccc(-c2csc(NC(=O)Cn3cnc4c3c(=O)n(C)c(=O)n4C)n2)cc1C | inconclusive: 4.47 µM [inhibitor, full curve, poor fit] | 
5 | O=C(c1cnn2c1NC(c1ccco1)CC2C(F)(F)F)N1CCN(c2cccc(Cl)c2)CC1 (stereo not given) | inconclusive: 14.1 µM [inhibitor, partial curve] | 
6 | Cc1ccc(Nc2cc(C)nc(-n3nc(C)cc3C)n2)cc1 |  | inactive: -10.8%
7 | O=c1[nH]cc(S(=O)(=O)c2ccccc2)[nH]1 |  | inactive: 8.26%
8 | Cc1sc(NC(=O)CSc2nnc(C)c(=O)[nH]2)c(C#N)c1C | inconclusive: 35.5 µM [inhibitor, single point] | 
9 | COc1ccc(OC)c(/C=C/C(=O)N2C(=O)c3cccc(N)c3C2=O)c1 | active: 14.1 µM | 
10 | Cc1ccc2c(c1)[nH]c1c(N3CCN(Cc4ccc5c(c4)OCO5)CC3)ncnc12 | inconclusive: 10 µM [inhibitor, partial curve] | 
11 | O=C(COC(=O)[C@H](Cc1c[nH]c2ccccc12)NC(=O)c1ccc(Cl)cc1)Nc1ccc2c(c1)OCO2 | inconclusive: 22.4 µM [inhibitor, partial curve] | 
12 | COC(=O)N/N=C/c1c(C)c(C(=O)c2ccc(F)cc2)n2ccccc12 | inconclusive: 7.94 µM [inhibitor, partial curve] | 
13 | COc1cccc2c1C(=O)c1c(O)c3c(c(O)c1C2=O)C[C@@](O)(C(=O)CO)C[C@@H]3O[C@H]1C[C@H](N)[C@H](O)[C@H](C)O1 | active: 3.16 µM | 
14 | Cn1cc(C(=O)N/N=C/C2=C(N3CCOCC3)C(=C\c3ccccc3)/CC2)ccc1=O | inconclusive: 7.94 µM [inhibitor, full curve, poor fit] | 
15 | CC(C)(C)c1ccc(C(=O)N2CCN(CCNC(=O)C(=O)NCc3ccccc3)CC2)cc1 | inconclusive: 39.8 µM [inhibitor, single point] | 
16 | O=C(Nc1cccc(Cn2cccn2)c1)c1cc2c(s1)CCCC2 | inconclusive: 35.5 µM [inhibitor, partial curve] | 
17 | CC(=O)Nc1ccc(-n2nnnc2SCC(=O)Nc2cccc(NC(=O)c3ccco3)c2)cc1 |  | inactive: 7.11%
18 | O=C(COc1ccc(F)cc1)Nc1nnc(S(=O)(=O)N2CCc3ccccc32)s1 | active: 2.82 µM | 
19 | Cc1nc2c3ccccc3nc(NNC(=O)CCC(=O)N3CCN(c4cccc(Cl)c4)CC3)n2n1 | inconclusive: 4.47 µM [inhibitor, full curve, poor fit] | 
20 | CC1=C(c2ccc(C(C)C)cc2)S(=O)(=O)NC1=NCc1ccccc1C |  | inactive: 10.7%
21 | COc1ccc(CN(C)CC(=O)NC(=O)NCc2ccccc2)cc1OC |  | inactive: -9.42%
22 | CC1CCN(C(=O)CSc2c3c(nc4ccc(Cl)cc24)CCCC3)CC1 | inconclusive: 0.199 µM [inhibitor, full curve] | 
23 | CCOc1ccc2nc(SCC(=O)c3ccc(C)s3)sc2c1 | inconclusive: 10 µM [inhibitor, partial curve] | 

Row | SMILES | Potency | activity, negative = inhibition
24 | COc1ccc(/C=N/NC(=O)Cc2csc(Nc3cccc(C(F)(F)F)c3)n2)cc1C | inconclusive: 25.1 µM [inhibitor, partial curve] | 
25 | CN(Cc1ccccc1)C(=S)NC(=O)c1ccccc1 |  | inactive: -0.826%
26 | Cc1ccc(NC(=O)CSc2nc3ccc(Br)cc3[nH]2)c(C)c1 |  | inactive: 9.08%
27 | COc1ccc(NC2CC(=O)N(c3cccc(C)c3)C2=O)cc1 (stereo not given) | inconclusive: 11.2 µM [inhibitor, partial curve] | 
28 | CCOc1c(Nc2ccccc2O)c(=O)c1=O |  | inactive: -2.02%
29 | C=CC[C@@H]1Cc2c(Br)ccc(Br)c2[C@@H](CC=C)N1 | inconclusive: 20 µM [inhibitor, single point] | 
30 | COc1ccc2nc(NC(=O)c3nc(S(=O)(=O)Cc4ccccc4F)ncc3Cl)sc2c1 | active: 7.08 µM | 
31 | CSc1nn2cc(CCN3CCOCC3)c(-c3ccc(F)cc3)nc2c1C#N |  | inactive: 5.42%
32 | OC(COc1cccc2ccccc12)CN1CCN(c2ccccn2)CC1 (stereo not given) | inconclusive: 17.8 µM [inhibitor, partial curve] | 
33 | CCOc1ccc(-c2[nH]nc3c2C(c2ccc(O)cc2)C(C#N)=C(N)O3)cc1 (stereo not given) |  | inactive: -9.65%
34 | COc1ccc(C2C(C(=O)c3ccccc3)N3c4ccccc4C=CC3C2[N+](=O)[O-])cc1 (stereo not given) | inconclusive: 15.8 µM [inhibitor, partial curve] | 
35 | COc1ccc(NC(=O)c2ccc(=O)[nH]c2)cc1S(=O)(=O)N1CCCCC1 |  | inactive: 5.15%
36 | CCC(Sc1ncccc1C(=O)O)C(=O)N1CCCC1 (stereo not given) |  | inactive: -11.4%
37 | Cc1ccc(-n2nc(C(=O)N3CCN(c4ccc(F)cc4)CC3)c(=O)n(C)c2=O)cc1 |  | inactive: -1.67%
38 | Cc1ccc(SCCNC(=S)Nc2ccccc2)cc1 |  | inactive: 1.53%
39 | C=C(COC)C1=CCC(C(=O)OC)(C(=O)OC)[C@@H](C[N+](=O)[O-])c2ccccc21 | inactive | 
40 | COCCn1nnnc1C(C(C)C)N(Cc1ccccc1)Cc1cc2cc(OC)ccc2[nH]c1=O (stereo not given) | inconclusive: 35.5 µM [inhibitor, single point] | 
41 | O=C(CCNc1ccc(Cl)cc1)c1cccs1 | inconclusive: 10 µM [inhibitor, partial curve] | 
42 | CCOc1ccccc1OCC(=O)Nc1ccc(S(=O)(=O)N(C)C)cc1 |  | inactive: -5.18%
43 | Cc1cc(C)nc(N/N=C/c2c(C)oc3ccccc23)n1 | inconclusive: 22.4 µM [inhibitor, partial curve] | 
44 | CC(C)(C)NC(=O)COc1ccc(CNc2ccc3[nH]c(=O)[nH]c3c2)cc1 | inconclusive: 25.1 µM [inhibitor, partial curve] | 
45 | CN1CCC(=NNC(=O)C(=O)Nc2ccccc2F)CC1 | inconclusive: 22.4 µM [inhibitor, partial curve] | 

From PubChem BioAssay AID1460 (National Center for Advancing Translational Sciences (NCATS), 2008)
